The campaign covered roughly 150,000 compounds. About 540 (0.36%) showed an effect of 50% or more. Some of the results follow.
These compounds were tested on Plasmodium falciparum (assay: Primary screen in NF54 nanoGlo assay, in single point, at 2uM, 72h; a lower Z score goes with more inhibition). Settings: timepoint 72 hour.
Format: functional, Erythrocyte

Structure (SMILES) | % Inhibition [%] | Z score
O=C(CCc1ccc(F)cc1F)Nc1cnccn1 | -3 | 0.52
COc1cccc(F)c1-c1c(-c2ccccc2)ncn1Cc1cnc(C)cn1 | -4 | 0.68
N#C[C@@H]1CN(C(=O)CCn2nc3ccccn3c2=O)CCO1 | -5 | 0.77
Cc1csc(CC(=O)c2ccc(O)cc2O)n1 | -10 | 1.33
COC(=O)c1c(-c2cccc(Cl)c2)noc1Nc1ccc(C)c(Cl)c1 | 14 | -2.22
c1cncc(-c2nc([C@@H]3CCCCO3)no2)c1 | -5 | 1.03
O=C(Nc1ccccc1-n1ccnc1)c1[nH]nc(C2CC2)c1Cl | -11 | 1.26
CN(CCc1ccccc1C(=O)N1CC(C)(O)C1)C(=O)OC(C)(C)C | -10 | 1.36
O=S(=O)(c1ccccc1OC(F)(F)F)N1CCC(c2nc3ccccc3s2)CC1 | 1 | -0.06
N#Cc1c(N)nc2c(c1N)C[C@H](CO)O2 | -6 | 0.69
Cc1ccc(C(=O)NCc2cccc(Cl)c2)cc1-n1nnc2cccnc21 | -4 | 0.75
Cc1nccc(NC(=O)c2ccncc2Cl)c1Cl | -3 | 0.28
CCOC1CC(NC(=O)CCc2cnccn2)C12CCOCC2 (stereo not drawn) | -9 | 1.36
O=c1cc2c(nn1CN1CCc3ccccc3C1)CCC2 | -14 | 1.78
Cc1c(-c2ccccc2F)[nH]c2ccc(CNC(=O)C3CCOCC3)cc12 | 6 | -0.88
Cc1ccccc1Nc1nnc(-c2ccccc2)c(-c2ccccc2)n1 | 34 | -0.47
CCn1cc(NC(=O)c2cc(-c3cccc(OC)c3)nc3c2c(C)nn3C)cn1 | 24 | -2.73
Cc1ccc2c(c1C)-n1cccc1C1(CCN(C(=O)COc3ccc(Cl)cc3)CC1)N2 | -7 | 0.96
Cc1nccc(C(=O)N2CCO[C@H](c3ccccc3)CC2)n1 | -10 | 1.87
Cc1csc([C@@H](C)CNC(=O)c2ccc[nH]2)n1 | -11 | 1.19
CCS(=O)(=O)N1CCC(C(=O)N2CCN(c3cccc(Cl)c3)CC2)CC1 | -9 | 1.36
Cc1nn(C)c(C)c1C(C)c1nc(C2CN3CCCCC3CO2)no1 (stereo not drawn) | 4 | -0.76
Cc1cccc(N2CCN(C(=O)c3cc4c(=O)n(C)ccc4n3C)CC2)c1C | -11 | 1.09
CC(C)c1ccc(-n2cc(-c3ccccc3)nc2NC(=O)CN(CCN2CCOCC2)C(=O)c2cccs2)cc1 | 15 | -2.18

Reference: ChEMBL document CHEMBL4888484, “Replenishing the malaria drug discovery pipeline: Screening and hit evaluation of the MMV Hit Generation Library 1 (HGL1) against asexual blood stage Plasmodium falciparum ,using a nano luciferase reporter read-out” (2022)
